In PubChem BioAssay AID1345083 (National Center for Advancing Translational Sciences (NCATS), 2018):
In all, about 94,000 compounds went through this assay and about 6,200 (6.6%) were called active. Inconclusive results, whose numbers are uncertain, are shown with a selection of clear calls. The call rests on the fitted dose curve; in most records, active means well fitted inhibition curve with a large enough effect; inconclusive means small, poorly fitted or top-dose-only effect; inactive means flat fitted curve, though single readings scatter. Potencies of inconclusive entries are doubtful fits and often do not repeat.

Test: Cytotoxic Profiling in HEK 293 Cell Line of Diverse Libraries Using Quantitative High-Throughput Screening; further: nearly all actives have a fitted effect of over 60% in size
Settings: HEK 293 viability, ATP luminescence (CellTiter-Glo), 48-72 h; series mostly up to 115 µM
Procedure, shortened: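 HEK 293 cells seeded at 250 cells/well were exposed to compound for 48 or 72 hr at 37 degree Celsius. Viability taken as ATP content by CellTiter-Glo luminescence.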
Potency means the concentration at half of the fitted maximal effect; tags describe the fitted curve by direction and shape.

Structure (SMILES)	Potency
COc1cccc2c1OCC(C(=O)NCCSc1ccc(C)cc1)C2 (stereo not drawn)	inconclusive: 89.1 µM [inhibitor, single point]
O=C(NCc1nnc2ccc(-c3ccc(Cl)cc3)nn12)c1ccc(Cl)s1	inactive
CC(C)c1ccc(NC(=O)CN2CCCc3nc(-c4ccncc4)ncc3C2=O)cc1	inconclusive: 79.4 µM [inhibitor, partial curve, poor fit]
COCC1CN(C(C)=O)CC12CCN(S(=O)(=O)Cc1ccc(F)cc1)CC2 (stereo not drawn)	inactive
COC(=O)c1ccc2c(c1)nc1n2[C@@H](CNCc2ccc3c(c2)OCO3)COC1	inconclusive: 70.8 µM [inhibitor, partial curve, poor fit]
O=C(CC1CCCC1)N1CCC2(CC1)CC(N(Cc1ccccc1)C1CC1)CCO2 (stereo not drawn)	inconclusive: 50.1 µM [inhibitor, partial curve, poor fit]
CC1=C[C@@H](CN2CCC[C@H]2CO)[C@H](C(C)C)C[C@H]1Cc1nnc(-c2cncn2C)o1	inconclusive: 70.8 µM [inhibitor, full curve, poor fit]
Cc1nc(C2CC(O)C2)cc(N2CCN(CCc3ccccc3)CC2)n1 (stereo not drawn)	inconclusive: 50.1 µM [inhibitor, partial curve]
O=C(Cc1ccc(Cl)cc1)NCCNC(=O)c1cccc(-c2ccc(C(F)(F)F)cc2)c1	inconclusive: 10 µM [inhibitor, full curve, poor fit]
Cc1nn2c(c1-c1ccccc1C(C)C)N(C(=O)COc1ccccc1C(N)=O)CCC2	active: 70.8 µM
CCN1c2cc(C(=O)Nc3ccc(C)cc3C)ccc2C(=O)N2CCCCCC21 (stereo not drawn)	inconclusive: 50.1 µM [inhibitor, partial curve, poor fit]
CCCn1cc(C(=O)NC(C)c2cnn(-c3cccc(F)c3)c2C)c(C)n1 (stereo not drawn)	inconclusive: 7.08 µM [inhibitor, full curve, poor fit]
COc1ccc(-c2cc3c(=O)n(CCNC(=O)c4cc(Cl)ccc4F)ccn3n2)cc1	active: 79.4 µM
O=C(NCC1CCCO1)N1CCCn2cc(-c3ccccc3)nc21 (stereo not drawn)	inconclusive: 39.8 µM [inhibitor, full curve, poor fit]
Cc1cccc(OCC(=O)N2CCC[C@H]2c2nc(-c3ccc(F)cc3)no2)c1	inconclusive: 56.2 µM [inhibitor, partial curve, poor fit]
COCCN(C)C[C@H]1C[C@H](CO)CN(C(=O)c2ccc(Cl)c(F)c2)C1	inactive
COc1ccc(NC(=O)N[C@H]2C[C@@H](c3nc(-c4ccc(F)cc4)no3)N(C)C2)cc1	inactive
O=C1[C@@H]2C[C@@H](O)CN2C2(CN(Cc3ccccn3)C2)C(=O)N1Cc1ccccc1	inactive
CN1C(=O)C2(CCN(C(=O)c3ccnn3C)CC2)c2ccccc21	inactive
O=C(c1ccc2cc[nH]c2c1)N1CCC2(CC1)N=C(c1ccc(Cl)cc1)NO2	inconclusive: 39.8 µM [inhibitor, partial curve, poor fit]
COCC1CN(C(C)=O)CC12CCN(C(=O)c1cc3ccccc3[nH]1)CC2 (stereo not drawn)	inactive

Structure (SMILES)	Potency
CCOC(=O)C1(Cc2ccccc2F)CCCN(C(=O)c2cccc(-n3cccn3)c2)C1 (stereo not drawn)	inconclusive: 50.1 µM [inhibitor, partial curve, poor fit]
COCCNC(=O)c1ccc(CC2CCN(C(=O)c3n[nH]c(=O)c4ccccc34)CC2)cc1	inconclusive: 79.4 µM [inhibitor, partial curve]
COCC(=O)N1CCCC(C(=O)N2CCC(N3Cc4cccn4C3=O)CC2)C1 (stereo not drawn)	inactive
CCOc1ccccc1CN1CCC2(CCN(C(=O)OC)CC2)Oc2ccccc21	inconclusive: 56.2 µM [inhibitor, partial curve, poor fit]
COc1ccc(-c2noc([C@@H]3CCCN3Cc3ccccc3OC)n2)cn1	inconclusive: 100 µM [inhibitor, partial curve]
COc1ccc(CN2CCOC[C@H]2c2ncc(C(C)(C)C)[nH]2)cc1	inactive
COc1ccc(CN2Cc3[nH]nc(-c4cccc(O)c4)c3CC2=O)cc1	inconclusive: 31.6 µM [inhibitor, full curve, poor fit]
CC1CCN(C(=O)[C@@H](C)C2CC[C@@]3(C)CC[C@H](NC(=O)c4ccccn4)[C@@H](C)[C@@H]3[C@H]2O)CC1 (stereo partly drawn)	inactive
CC(=O)Nc1ccc(CN2C[C@H](O)C[C@H]2c2nc(-c3ccc(OC(F)(F)F)cc3)no2)cc1	inconclusive: 79.4 µM [inhibitor, partial curve, poor fit]
COc1ccc(-c2c(C(=O)NCC(F)(F)F)nc3sccn23)cc1	inactive
O=S(=O)(c1ccccc1C(F)(F)F)N1CC(c2nc(Cc3ccccc3)no2)C1	inconclusive: 50.1 µM [inhibitor, partial curve, poor fit]
COCCOc1ccc2c(n1)CCN(C(=O)Cc1ccccc1C)C2	inconclusive: 89.1 µM [inhibitor, single point]
Cc1ccc(Cc2ccccc2C(=O)N2C[C@@H](C)[C@@](C)(O)C2)cc1	inconclusive: 89.1 µM [inhibitor, single point]
COc1ccc(-c2ccc3c(c2)C(=O)N2CCN(C(=O)NC4CCCCC4)C[C@@H]2C(=O)N3)cc1	inconclusive: 89.1 µM [inhibitor, single point]
Cc1cc(CN2CCOc3c(O)cc(-c4ccccc4C)cc3C2)on1	inconclusive: 89.1 µM [inhibitor, single point]
CN1C(=O)CN(CCCCOc2ccccc2)C(=O)c2ccccc21	inconclusive: 70.8 µM [inhibitor, partial curve]
CCc1nc2c(c(-c3ccc(Cl)cc3)n1)CN(C(=O)Nc1ccc(Cl)cc1)CC2	inconclusive: 50.1 µM [inhibitor, partial curve, poor fit]
O=C1Nc2ccc(Br)cc2C(=O)N2CC[C@H](NS(=O)(=O)c3cccs3)C[C@@H]12	inconclusive: 31.6 µM [inhibitor, full curve]
COc1ccc(F)cc1-c1ccc(CN2CCC(N[S+](C)(=O)[O-])C2)cc1 (stereo not drawn)	inconclusive: 56.2 µM [inhibitor, partial curve, poor fit]
COc1ccc(CC(=O)N2CC3(Cc4ccccc4N(C(C)=O)C3)C2)cc1	inactive
CCc1nc2c(c(-c3ccc(Cl)cc3)n1)CCN(Cc1ccccc1)CC2	inconclusive: 79.4 µM [inhibitor, partial curve]

Structure (SMILES)	Potency
COCCCNC(=O)C1CCN(c2ccnc3ccnn23)CC1	inactive
CC1CCC2(CC1)NC(=O)N(CC(=O)NCCc1cccs1)C2=O (stereo not drawn)	inactive
CCN(CC)C(=O)N1CC(Oc2cccc(-c3nc(C)no3)c2)C1	inconclusive: 89.1 µM [inhibitor, single point]
O=C(NC1CCCCC1)c1ccc2nnc(C3CC3)n2c1	inactive
O=C(c1cccc(Cl)c1)N1CCN(C(=O)c2nnn3c2COC(c2ccc(Cl)cc2)C3)CC1 (stereo not drawn)	inconclusive: 50.1 µM [inhibitor, partial curve]
CCO[C@H]1CN(C(=O)CCc2ccc(-c3ccc(Cl)cc3)[nH]2)C[C@@H]1O	inconclusive: 50.1 µM [inhibitor, partial curve, poor fit]
CC(C)CN(CC1CN(C(=O)c2ccc(Cl)c(Cl)c2)CCO1)C(=O)c1cccc(F)c1 (stereo not drawn)	inconclusive: 79.4 µM [inhibitor, partial curve, poor fit]
COCCC1(NC(=O)C(C)c2ccccc2)CCN(S(C)(=O)=O)CC1 (stereo not drawn)	inactive
O=C(c1ccccc1Cl)N1CCC(N(Cc2ccccc2)C2CCOCC2)CC1	inconclusive: 89.1 µM [inhibitor, single point]
COc1ccc(Nc2ccnc(N3CCC(C(=O)NC(C)C)CC3)n2)cc1	inconclusive: 56.2 µM [inhibitor, partial curve, poor fit]
COc1ccc(CN2Cc3[nH]cnc3C[C@H]2C(=O)NCc2ccccc2)c2ccccc12	active: 89.1 µM
CCc1noc(-c2nc(-c3ccc(OC)cc3)no2)n1	inconclusive: 70.8 µM [inhibitor, partial curve, poor fit]
Cc1noc(C)c1Cn1cc2c3c(cccc31)[C@H](CC(C)C)N[C@H](C(=O)NC1CCC1)C2	active: 39.8 µM
O=C1NCC2(CCN(Cc3ccccc3)CC2)Oc2ccccc21	inactive
CC(C)(C#N)c1ccc(-c2cc(CO)ccn2)cc1	inconclusive: 56.2 µM [inhibitor, partial curve, poor fit]
Cc1noc(C)c1Cc1ccc(C(=O)N2CCCCCCN(C)C(=O)[C@@H]3CCC[C@@H]32)o1	inconclusive: 89.1 µM [inhibitor, single point]
COc1ccc(C(=O)Nc2nc3c(s2)C[C@@H]2[C@](C)(CO)[C@H](O)CC[C@@]2(C)[C@@H]3CC(=O)NCc2ccco2)cc1	active: 79.4 µM
COc1ccccc1-c1nc(C(=O)NCc2cccnc2)n2ccncc12	inconclusive: 89.1 µM [inhibitor, single point]
COc1cccc(-c2cn3cc(C(=O)NCCCc4ccccc4)nc3s2)c1	inconclusive: 44.7 µM [inhibitor, partial curve, poor fit]
CCC(=O)N1CCc2c(sc3ncnc(NCCc4ccccc4)c23)C1	inconclusive: 56.2 µM [inhibitor, partial curve, poor fit]
CCNC(=O)NC1(Cc2cc(-c3ccc(OC)cc3)on2)COC1	inconclusive: 126 µM [inhibitor, single point]
